Data: PubChem BioAssay AID1347120 (National Center for Advancing Translational Sciences (NCATS), 2019)
The whole screen tested about 390,000 compounds, of which about 930 (0.24%) were called active. The shares of active, inactive and inconclusive entries below differ from those in the screen. Calls follow the shape of the dose curve; as a rule, active = well fitted activation curve with a large enough effect; inconclusive = small, poorly fitted or top-dose-only effect; inactive = no such curve, though single readings can be large or run the other way. Potencies beside an inconclusive call are fits to weak or partial responses and may not hold up.

assay: qHTS for Suppressors of FUS Proteinopathy: Primary screen using FUS-linked yeast assay; also: nearly all actives have a fitted effect of over 55% in size; conditions: S. cerevisiae FUS-expressing, OD600, 24 h; Potency: growth rescue; series mostly up to 76.6 µM
Outline: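 Galactose (2%) drives FUS expression in yeast precultured in raffinose; seeding density OD 0.005. Test compounds incubated 24hr at 30C and 99% humidity before absorbance at 600 nm was measured.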
Potency is read from the fitted curve at half-maximal effect; tags tell the direction and shape of the fitted curve.

**Q.** With CCOc1ccccc1NC(=O)Nc1ccc2nc(N3CCN(C)CC3)cc(C)c2c1 as the compound, how does the Potency read?
**A.** inactive

**Q.** For CCSc1nc(N)c(C#N)c(-c2ccco2)c1C#N, which Potency is on record?
**A.** inactive

**Q.** With CC(C)(C)NC(=O)C(c1ccccc1)n1c(=O)c(-c2ccco2)nc2ccccc21 (stereo not drawn) as the compound, how does the Potency read?
**A.** inconclusive: 11.2 µM [activator, partial curve]

**Q.** With CN(CC(=O)Nc1ccccc1Br)C(=O)c1sccc1-c1ccccc1 as the compound, how does the Potency read?
**A.** inactive

**Q.** Which Potency does the source give for S=C(NCCc1cccc(Cl)c1)NC1CCCCC1 here?
**A.** inactive

**Q.** With CCCCCNC(=O)C(c1ccncc1)n1c(=O)c(-c2ccco2)nc2ccccc21 (stereo not drawn) as the compound, how does the Potency read?
**A.** inconclusive: 10 µM [activator, full curve]

**Q.** With COc1ccc(NC(=O)CN2CCN(c3nc(-c4cccc(OC)c4)cs3)CC2)cc1 as the compound, how does the Potency read?
**A.** inconclusive: 44.7 µM [activator, single point]

**Q.** For Cc1ccc(C(=O)N/C(=C/c2ccco2)C(=O)Nc2cccc(C)c2)cc1, which Potency is on record?
**A.** active: 31.6 µM

**Q.** For COc1ccccc1Oc1ccc2c(c1)C(=O)N(c1cccc3ncccc13)C2=O, which Potency is on record?
**A.** inconclusive: 50.1 µM [activator, single point]

**Q.** For CCNC(=S)N(CCc1cccc(C)c1)Cc1cc2cc(OC)c(OC)cc2[nH]c1=O, which Potency is on record?
**A.** inconclusive: 31.6 µM [activator, single point]

**Q.** Which Potency does the source give for CCC1(CC)NC(=O)N(CC(=O)Nc2sc3c(c2C(N)=O)CCC3)C1=O here?
**A.** inconclusive: 4.47 µM [activator, full curve, poor fit]

**Q.** Which Potency does the source give for CCc1ccc(-n2c(SCc3nc(-c4cc(OC)ccc4OC)no3)nnc2-c2ccccc2)cc1 here?
**A.** inconclusive: 14.1 µM [activator, partial curve]

**Q.** With CCOC(=O)Cn1c(=O)n(-c2ccccc2OC)c2nc(-c3ccccc3)nc(C(N)=O)c21 as the compound, how does the Potency read?
**A.** inconclusive: 25.1 µM [activator, partial curve, poor fit]

**Q.** Which Potency does the source give for CC(C)C(=O)N(c1cc2sc(=O)oc2c2ccccc12)S(=O)(=O)c1cccs1 here?
**A.** inconclusive: 25.1 µM [activator, partial curve, poor fit]

**Q.** With CC1=C(C(=O)N(C(C)C)C(C)C)CC(CC(=O)NCc2ccco2)C(=O)N1Cc1ccc(C(C)(C)C)cc1 (stereo not drawn) as the compound, how does the Potency read?
**A.** inconclusive: 12.6 µM [activator, partial curve, poor fit]

**Q.** Which Potency does the source give for CCc1ccc(CN(C(=O)c2ccc(OC)cc2)C2CCS(=O)(=O)C2)cc1 (stereo not drawn) here?
**A.** inactive

**Q.** For CC1=C(C(=O)N2CCOCC2)CC(CC(=O)NCCCCc2ccccc2)C(=O)N1Cc1ccc(C(C)(C)C)cc1 (stereo not drawn), which Potency is on record?
**A.** inconclusive: 28.2 µM [activator, single point]

**Q.** With CCCCC(=O)Nc1nc(C)c(-c2csc(Nc3cc(OC)ccc3OC)n2)s1 as the compound, how does the Potency read?
**A.** inconclusive: 35.5 µM [activator, single point]

**Q.** For CCCOP(=O)(OCCC)c1nc(-c2ccccc2)oc1NCc1ccccc1, which Potency is on record?
**A.** inconclusive: 22.4 µM [activator, partial curve, poor fit]

**Q.** Which Potency does the source give for CCCCN1CCN(C(=O)c2ccc(CNC(=O)c3cccc(Br)c3)cc2)CC1 here?
**A.** inactive

**Q.** Which Potency does the source give for Cc1cc(C(=O)O)ccc1-n1c(C)cc(/C=C(/C#N)C(=O)Nc2ccccc2)c1C here?
**A.** inconclusive: 44.7 µM [activator, partial curve, poor fit]

**Q.** Which Potency does the source give for C[C@H](CO)N1C[C@H](C)[C@H](CN(C)C(=O)Nc2ccc(F)cc2)Oc2c(NC(=O)c3ccc(-c4nccs4)cc3)cccc2C1=O here?
**A.** inconclusive: 20 µM [activator, single point]

**Q.** With CCCCc1c(-c2ccccc2OC)ncn1CCc1ccc(Cl)cc1 as the compound, how does the Potency read?
**A.** inconclusive: 20 µM [activator, single point]

**Q.** For Cc1ccc(S(=O)(=O)NCc2ccccc2C)cc1, which Potency is on record?
**A.** inactive

**Q.** Which Potency does the source give for CCCn1c(COc2cccc(C)c2)nc2ccccc21 here?
**A.** inconclusive: 7.08 µM [activator, full curve]

**Q.** For CC(=O)NS(=O)(=O)c1ccc(NC(=O)c2cc(-c3ccc(C)c(C)c3)nc3ccccc23)cc1, which Potency is on record?
**A.** inconclusive: 35.5 µM [activator, partial curve, poor fit]

**Q.** For COc1ccc(-c2nc(CSCC(=O)NCCC3=CCCCC3)c(C)o2)cc1OC, which Potency is on record?
**A.** inconclusive: 5.62 µM [activator, full curve]

**Q.** With COC(=O)C1=C(C)NC(=O)NC1c1cn(-c2ccccc2)nc1-c1ccc(OC)c(Br)c1 (stereo not drawn) as the compound, how does the Potency read?
**A.** inconclusive: 50.1 µM [activator, single point]

**Q.** Which Potency does the source give for COc1ccc(NC(=O)CN2C(=O)C(C)(C)c3cc(S(=O)(=O)N4CCCCC4)ccc32)cc1Cl here?
**A.** inconclusive: 50.1 µM [activator, single point]

**Q.** Which Potency does the source give for Cc1ccc(/C=C/c2onc(C)c2S(=O)(=O)N2CCC(C(=O)Nc3ccc(OC(F)(F)F)cc3)CC2)cc1 here?
**A.** inactive

**Q.** With COc1ccc(C(C)=O)cc1COC(=O)c1ccc(OCc2c(C)noc2C)cc1 as the compound, how does the Potency read?
**A.** inactive

**Q.** With CC(C)CCNC(=O)COc1ccc2c(c1)C(=O)CC(C)(C)O2 as the compound, how does the Potency read?
**A.** inactive

**Q.** Which Potency does the source give for CN(CC(=O)Nc1ccccc1Cl)C(=O)c1ccc(Cl)c(S(=O)(=O)N2CCCCCC2)c1 here?
**A.** inconclusive: 17.8 µM [activator, partial curve, poor fit]

**Q.** Which Potency does the source give for Cn1c(=O)c2nc(-c3ccccc3)c(-c3ccccc3)nc2n(C)c1=O here?
**A.** inactive

**Q.** For CCCCNc1nc2c(-c3cccc(C)c3)nnn2c2ccccc12, which Potency is on record?
**A.** inactive

**Q.** With Cc1ccc(Cn2c(C3CCCN3c3nc(C)cs3)nc3cc(C(F)(F)F)ccc32)cc1 (stereo not drawn) as the compound, how does the Potency read?
**A.** inconclusive: 31.6 µM [activator, partial curve, poor fit]

**Q.** With O=C(C(O)c1ccc(Br)cc1)N1CCC(Nc2ccc3[nH]ncc3c2)CC1 (stereo not drawn) as the compound, how does the Potency read?
**A.** inconclusive: 50.1 µM [activator, single point]

**Q.** With CSc1ccc(CNC(=O)Cn2c(-c3cccs3)cc3cc(F)ccc32)cc1 as the compound, how does the Potency read?
**A.** inactive

**Q.** Which Potency does the source give for CC(=O)N1CCC(C(=O)N2c3ccccc3N=C(c3ccc4c(c3)OCO4)C2C(=O)NCc2ccccc2)CC1 (stereo not drawn) here?
**A.** inconclusive: 25.1 µM [activator, partial curve]

**Q.** Which Potency does the source give for Cc1ccc(C)c(C(=O)COC(=O)c2cc(S(=O)(=O)N3CCOCC3)ccc2F)c1 here?
**A.** inconclusive: 28.2 µM [activator, single point]

**Q.** With CCN1C(=O)[C@@H]2[C@@H](c3ccc(-c4ccc(F)cc4)c(OC)c3)N3CCC[C@@]3(C(=O)OC)[C@@H]2C1=O as the compound, how does the Potency read?
**A.** inconclusive: 35.5 µM [activator, single point]

**Q.** With CCCCc1ccc(Nc2cc(C)nc(-n3nc(C)cc3C)n2)cc1 as the compound, how does the Potency read?
**A.** inconclusive: 50.1 µM [activator, single point]

**Q.** Which Potency does the source give for CCOc1cc(C(=O)NCC(C)(C)CNC(=O)c2cc(OCC)c(OCC)c(OCC)c2)cc(OCC)c1OCC here?
**A.** inconclusive: 15.8 µM [activator, partial curve]

**Q.** For CCCCNC(=O)CC1Nc2cc(C)c(C)cc2NC1=O (stereo not drawn), which Potency is on record?
**A.** inactive

**Q.** Which Potency does the source give for Cc1ccc(NC(=O)C2CCCN(c3ncnc4onc(C)c34)C2)c(Cl)c1 (stereo not drawn) here?
**A.** inactive

**Q.** For O=C(CCSCc1ccc(Cl)cc1)NCCc1ccccc1, which Potency is on record?
**A.** inactive

**Q.** Which Potency does the source give for CC(C)c1ccc(OC(=O)c2ccc3c(=O)n4c(nc3c2)CCC4)cc1 here?
**A.** inconclusive: 20 µM [activator, single point]

**Q.** With CC(C)[C@H](NC(=O)[C@H]1N2C(=O)c3ccccc3C2SC1(C)C)C(=O)NCc1ccco1 (stereo partly drawn) as the compound, how does the Potency read?
**A.** inconclusive: 3.98 µM [activator, full curve]

**Q.** Which Potency does the source give for CCN(CC)CCN(C(=O)c1ccco1)c1nc2c(C)c(C)ccc2s1 here?
**A.** inactive

**Q.** For C/C(CC(=O)Nc1cccnc1)=N\NC(=O)C(=O)Nc1cccc(C)c1, which Potency is on record?
**A.** inconclusive: 12.6 µM [activator, partial curve, poor fit]

**Q.** With CCc1nc2ccc(C(=O)NCc3ccc(N(C)C)cc3)cc2nc1CC as the compound, how does the Potency read?
**A.** inconclusive: 44.7 µM [activator, single point]

**Q.** Which Potency does the source give for O=C(Cn1cc(SCc2ccc(Br)cc2)c2ccccc21)N1CCCCC1 here?
**A.** inactive

**Q.** With CCCCn1c(O)c(/C=C2\C=Nc3ccccc32)c(=O)[nH]c1=O as the compound, how does the Potency read?
**A.** inconclusive: 39.8 µM [activator, partial curve, poor fit]

**Q.** Which Potency does the source give for O=C(COc1ccccc1)NC(=S)N1CCc2ccccc21 here?
**A.** inactive

**Q.** Which Potency does the source give for CCCCn1c(SCC(=O)c2ccc3c(c2)OCCO3)nnc1-c1ccoc1C here?
**A.** inconclusive: 28.2 µM [activator, partial curve]

**Q.** Which Potency does the source give for COc1cc(C2C(=O)N(C3CCCCCC3)CC(=O)N2Cc2ccccc2)ccc1OC(C)C (stereo not drawn) here?
**A.** inconclusive: 25.1 µM [activator, partial curve, poor fit]

**Q.** With CCOC(=O)c1c(NC(=O)C[n+]2ccc(N(C)C)cc2)sc(C)c1C as the compound, how does the Potency read?
**A.** inactive

**Q.** For COC(=O)[C@]12C[C@H](CC(=O)NCCCN3CCCC3=O)C(=O)N(Cc3cccc4ccccc34)C1=C[C@H](C1CCCC1)O[C@@H]2C, which Potency is on record?
**A.** inconclusive: 25.1 µM [activator, partial curve, poor fit]

**Q.** For COC(=O)c1cccc(Cn2ccc3ccc(-c4ccc5ccn(C(=O)c6cccc(OC)c6)c5c4)cc32)c1, which Potency is on record?
**A.** inconclusive: 28.2 µM [activator, partial curve, poor fit]

**Q.** Which Potency does the source give for COc1cccc(NC(=O)n2ccc3ccc(-c4ccc5ccn(C(=O)Nc6cccc(OC)c6)c5c4)cc32)c1 here?
**A.** inconclusive: 31.6 µM [activator, partial curve]

**Q.** Which Potency does the source give for CCOC(=O)c1cccc(C2=CC(=O)C[C@H](c3ccc(OC)c(OC)c3)C2)c1 here?
**A.** inconclusive: 31.6 µM [activator, single point]

**Q.** Which Potency does the source give for O=C(Nc1nnc(SCc2ccc(F)cc2)s1)C1CC(=O)N(c2ccc3c(c2)OCCO3)C1 (stereo not drawn) here?
**A.** inconclusive: 22.4 µM [activator, partial curve, poor fit]

**Q.** For COc1cc(F)c(S(=O)(=O)N2CCOc3ccccc32)cc1OC, which Potency is on record?
**A.** inactive
